Results taken from ChEMBL document CHEMBL4888484, “Replenishing the malaria drug discovery pipeline: Screening and hit evaluation of the MMV Hit Generation Library 1 (HGL1) against asexual blood stage Plasmodium falciparum ,using a nano luciferase reporter read-out” (2022).
The campaign covered roughly 4,800 compounds. About 420 (8.8%) showed an effect of 50% or more. The list shows a part of the results.

test system: Plasmodium falciparum; experiment: Confirmatory screen in NF54 nanoGlo assay, in single point, at 2uM, 72h; type: functional, Erythrocyte; conditions: timepoint 72 hour

| Compound | % Inhibition [%] |
| --- | --- |
| Cc1nn(C)c(N)c1C(=O)N(C1CCC1)C1CCC1 | -12 |
| CC(C(=O)Nc1cc(F)ccc1F)N1CCCC(c2nncn2C(C)C)C1 (configuration not stated) | -3 |
| O=C(O)CC1(NC(=O)c2cc(Oc3ccccc3)ccn2)CCC1 | -7 |
| Cc1cc(C)n(-c2nc(Nc3ccc(Cl)cc3)nc(Nc3ccc(Cl)cc3)n2)n1 | 82 |
| O=C(OCc1cncs1)c1ccccc1 | 2 |
| Cn1n[n+](CC(=O)Nc2ccccc2Cl)c2ccccc21 | -5 |
| COc1ccc(CN2CC[C@@H]3C(=O)NCCCCCCN(Cc4ccncc4)[C@@H]3C2)cc1Cn1ccnc1 | 47 |
| O=C(COC(F)F)N1CCc2ccncc21 | -6 |
| O=C(Nc1cccc2[nH]ncc12)c1ccco1 | -4 |
| COc1ncnc(OC)c1CNc1cnn(C)c1 | -2 |
| CC[C@](C)(NCC#Cc1ccc(C(F)(F)F)cc1)C(N)=O | 0 |
| CCn1ccc([C@H](C)NC(=O)c2cc(-c3ccc(OC)cc3)nc3c2c(C)nn3C)n1 | 8 |
| O=C(NCC(=O)N1CCC[C@H]1c1ccc2c(c1)OCCCO2)c1ccc(Br)cc1 | -13 |
| Cc1cc(C)cc(NC(=O)CCn2c(=O)cc(C(F)(F)F)c3cn(C(C)C)nc32)c1 | -14 |
| O=C1NC(=O)[C@@H]2CN(S(=O)(=O)c3cc(F)cc(Cl)c3)C[C@H]12 | -6 |
| C[C@H](Nc1ccc(N2CCOCC2)nc1)c1cccc(CO)c1 | -1 |
| O=C(NCCCc1ccccc1)c1ccc(CN2C(=O)CCn3nccc32)cc1 | 24 |
| Cc1cccc(CN2C[C@@H](c3noc(-c4ccccn4)n3)CC2=O)c1 | -1 |
| CCc1nccn1CC(=O)Nc1cc(C)nn1C | -16 |
| CCCNC(=O)CS(=O)(=O)Cc1cccc(Br)c1C | -18 |
| COc1ccc(CN2CCc3nn(CC4CC4)c(=O)n3CC2)cc1 | -10 |
| CCN1c2cc(C)ccc2-n2cccc2C12CCNCC2 | -5 |
| Cc1cccc(N2C(=O)c3cc(Br)ccc3N[C@@H]2c2ccc(N(C)C)cc2)c1 | -2 |
| CCN1c2cc(C(=O)NCc3ccccc3C)ccc2C(=O)N2CCCC[C@H]21 | -3 |
| CC(C)[C@H](NC(=O)c1ccc(Cl)cc1Cl)C(=O)O | -7 |
| CCOc1ccc(NC(=O)c2cn3nc(-c4ccc(OCC)cc4)cc3nc2C2CCN(C(=O)OC(C)(C)C)CC2)cc1 | 42 |

| Compound | % Inhibition [%] |
| --- | --- |
| CCc1c2c(=O)n(-c3ccc(F)cc3)[nH]c2cc(=O)n1Cc1ccccc1 | 4 |
| CC(C)(C)CC(=O)Nc1ccc2c(c1)C(N1CCCCC1)=Nc1ccccc1O2 | -13 |
| CCC(=O)N1CCC[C@H](OCc2ccccc2Cl)C1 | -1 |
| CC(C)[C@H](Nc1ccc2nccnc2n1)c1nnc2n1CCC2 | -8 |
| COc1cccc(NC(=O)c2ccc3c(c2)N(C)[C@@H]2CCCCCN2C3=O)c1 | 5 |
| COCc1nsc(N2CCC(c3c(F)cccc3F)CC2)n1 | -5 |
| Cc1cc(NC(=O)CNC2C(C)CCN(C(=O)OC(C)(C)C)C2C)n(C(C)(C)C)n1 (configuration not stated) | -11 |
| C[C@@H](C(=O)Nc1nc(-c2ccccn2)cs1)n1nc2c(cc1=O)CCC2 | 17 |
| Cc1c(NC(=O)[C@H]2CCc3nnc(C4CCOCC4)n3CC2)cccc1C(F)(F)F | -13 |
| CC1=CN(O)[C@H](c2ccc(O)cc2)N=N1 | -17 |
| C[C@H]1CCC[C@@H](NCCc2ccccc2)CCC/C=C/c2cc(O)cc(O)c2C(=O)O1 | 77 |
| Cc1cccc(C(=O)Oc2ccc(-n3ccnc3)cc2)c1 | 3 |
| O=c1cc2n(c(=O)[nH]1)CC(c1ccccc1)=NN2 | 4 |
| Cc1cn2c(S(=O)(=O)NCc3ccco3)c(C(C)C)nc2s1 | -2 |
| Cc1nnc2sc(Nc3ccccc3)nn12 | -2 |
| Cc1noc([C@@H](C)NC(=O)CC(C)C)c1C(=O)O | 11 |
| NC(=O)[C@@H]1CN(C(=O)c2ccc(Br)cc2Oc2ccc(F)cc2)CCO1 | 0 |
| Cc1ccccc1C(=O)Nc1nnc(Cc2nc3ccccc3s2)s1 | -10 |
| O=C1C2C3C=CC(C3=C3CCCCC3)C2C(=O)N1c1cccc(Cl)c1 (configuration not stated) | 9 |
| CCc1nc(NC(=O)C(=O)Nc2cc(C)on2)sc1C | 0 |
| O=C(N[C@H]1CCCc2occc21)c1ccco1 | 0 |
| CCN1CCC[C@@H]1CNCc1ccc2c(c1)OCCO2 | 2 |
| Cc1cc(CN(C)Cc2nccn2C)ccc1N1CCCCC1 | -1 |
| O=C(NCc1ccc(F)cc1F)[C@H]1CCCN(c2cn[nH]c(=O)c2)C1 | -11 |
| COc1ccc(OC)c([C@H](c2cc3c(cc2O)OCO3)N2CCCC2)c1 | 3 |
| CC[C@H]1CN2C=NC(N3CCN(C(=O)Cc4ccccc4)CC3)=CC2=N1 | 21 |
